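48-hour exposure; five concentrations; linearly interpolated endpoints. GI50 = concentration required for 50% inhibition of growth. At the TGI there is no net growth.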
tested on: NCI-H322M lung; assay: DTP human tumour cell line panel, 48 h

Q: What does the source list for `Cc1nc2ccc(NC(=O)CCNC(=O)CCCc3ccc(CC(C(=O)O)C(=O)O)cc3)cc2s1`?
A: GI50: > 100 µM; TGI: > 100 µM

Q: Which results are given for `COc1ccc(C(=O)NNc2nc(Cl)nc(N3CCN(C(c4ccccc4)c4ccccc4)CC3)n2)cc1`?
A: GI50: 1.74 µM; TGI: 4.43 µM

Q: How did the TGI turn out when `O=C1CC(=O)n2cnc3cccc(c32)N1` was run?
A: > 100 µM

Q: `C=C(C)CC1(O[Si](C)(C)C)C(=O)C(OCC)=C1OCC` (stereo unspecified) was tested. Which TGI did it give?
A: > 100 µM

Q: Which TGI does the source give for `C/C(=N\Nc1nc2cc(C(F)(F)F)ccc2s1)c1ccccn1` here?
A: 16.3 µM

Q: With `Cn1c(=O)oc2nc(-c3ccccc3)cc(C(F)(F)F)c21` as the compound, how does the TGI read?
A: > 100 µM

Q: For `CN(C)c1nc2ccccc2c2c1c1c(n2Cc2ccccc2)-c2ccccc2C1=O`, which GI50 is on record?
A: > 100 µM

Q: And the TGI?
A: > 100 µM

Q: `C[Si](C)(C)/C=C\CCO` was tested. Which TGI did it give?
A: > 100 µM

Q: What does the source list for `Cc1nc2c(n1C)C(=O)c1ccccc1C2=O`?
A: GI50: 33.8 µM; TGI: > 100 µM

Q: What does the source list for `CCN=C1C=CC(=C(c2ccc(N(CC)CC)cc2)c2ccc(N(CC)CC)cc2)c2ccccc21`?
A: GI50: 0.24 µM; TGI: 1.19 µM

Q: Which TGI does the source give for `COc1ccc(C(SC2C(O)C(CO)OC2n2ccc(=O)[nH]c2=O)(c2ccccc2)c2ccc(OC)cc2)cc1` (stereo unspecified) here?
A: 40.1 µM

Q: Which TGI does the source give for `O=c1oc(C(C(F)(F)F)C(F)(F)F)nc2ccccc12` here?
A: > 100 µM

Q: How did the TGI turn out when `CC1=Cc2ccc(C)cc2C(=O)C1=O` was run?
A: 37.4 µM

Q: `C=C(C)[C@H]1C2=CC(C)=C(O2)[C@@H](O[C@@H]2c3oc(cc3C)[C@H](C(=C)C)[C@H]3C=C(CC[C@H]2C(=C)C)C(=O)O3)[C@H](C(=C)C)CCC2=C[C@H]1OC2=O` was tested. Which TGI did it give?
A: > 100 µM

Q: For `CC(C)/C(Cl)=N\OC(NC(=O)P(=O)(c1ccccc1)c1ccccc1)(C(F)(F)F)C(F)(F)F`, which TGI is on record?
A: 38.7 µM

Q: For `O=C(Oc1ccc(CO[N+](=O)[O-])cc1)c1ccccc1`, which GI50 is on record?
A: 0.437 µM

Q: And the TGI?
A: 1.49 µM

Q: `COc1ccc(CCc2cc(OC)cc(OC)c2)cc1` was tested. Which TGI did it give?
A: > 100 µM

Q: `O=c1ncccn1C1OC(CO)C(O)C1O` (stereo unspecified) was tested. Which TGI did it give?
A: > 100 µM

Q: How did the GI50 turn out when `CCN(c1cc(-c2ccc(CN3CCOCC3)cc2)cc(C(=O)NCc2c(C)cc(C)[nH]c2=O)c1C)C1CCOCC1` was run?
A: 29.6 µM

Q: And the TGI?
A: > 78.1 µM

Q: How did the TGI turn out when `Cc1ccc(N=Nc2c(O)ccc3ccccc23)cc1` was run?
A: > 100 µM

Q: With `CC1CCSC(N(C(=O)N(C)c2ccccc2)c2ccccc2)=N1` (stereo unspecified) as the compound, how does the TGI read?
A: > 100 µM

Q: For `C[C@]12CC[C@H](O)CC1=CC[C@@H]1C2CC[C@]2(C)Nc3c(cnn3-c3ccccc3)CC12` (stereo partly specified), which TGI is on record?
A: 9.61 µM

Q: How did the TGI turn out when `CCOP(=O)(OCC)/C(=C/c1cccs1)CC(C)=O` was run?
A: > 100 µM

Q: For `Cc1c2c(c(C)c3c4c(oc13)CCCC4)C=NCC2`, which TGI is on record?
A: 28 µM

Q: With `CN1CC2=C(NC(=S)NC2c2ccccc2)/C(=C/c2ccccc2)C1` (stereo unspecified) as the compound, how does the TGI read?
A: > 100 µM

Q: `COC(=O)c1c2c(cc3c1CC1(Cc4cc5c(c(C(C)=O)c4C1)CCC5)C3)CCC2` (stereo unspecified) was tested. Which TGI did it give?
A: > 100 µM

Q: How did the TGI turn out when `O=C(O)c1ccccc1N=Cc1ccc(N(CCCl)CCCl)cc1` was run?
A: > 100 µM

Q: `CC(C)C(C/C=C1\CC(CO)(COC(=O)C2CCCCC2)OC1=O)C(C)C` (stereo unspecified) was tested. Which TGI did it give?
A: 36.8 µM

Q: Which TGI does the source give for `Cc1ccc(S(=O)(=O)c2ccccc2[N+](=O)[O-])cc1` here?
A: > 100 µM

Q: How did the GI50 turn out when `Cc1cc(O)c(C2=NN(c3ccc(S(N)(=O)=O)cc3)C(c3ccc(Cl)cc3)C2)c(C)c1Cl` (stereo unspecified) was run?
A: 5.01 µM

Q: And the TGI?
A: 20.2 µM

Q: With `C1=C2CCCC3=Cc4ccccc4OC23Oc2ccccc21` as the compound, how does the GI50 read?
A: 3.92 µM

Q: What about the TGI of the same compound?
A: > 100 µM

Q: Which TGI does the source give for `CN1CCc2c1nc(-c1ccc(Cl)cc1)c1c2N(C)CC1` here?
A: 48.4 µM

Q: With `Cc1nnc2n1N=C(c1ccc(Cl)cc1Cl)/C(=C/c1ccc(-c3ccc([N+](=O)[O-])cc3Cl)o1)S2` as the compound, how does the GI50 read?
A: > 100 µM

Q: And the TGI?
A: > 100 µM

Q: For `Cc1ccc(S(=O)(=O)c2nc(-c3ccccc3)oc2S(C)=O)cc1` (stereo unspecified), which GI50 is on record?
A: 7.5 µM

Q: What about the TGI of the same compound?
A: 20.5 µM

Q: Which GI50 does the source give for `COc1cc2c(cc1OC)C(=O)/C(=C/c1cc(-c3ccc4c(c3)OCO4)n[nH]1)C2` here?
A: 1.54 µM

Q: And the TGI?
A: 3.01 µM

Q: With `N#Cc1cc2c(n(C3OC(CO)C(O)C(O)C3O)c1=S)CCCCCC2` (stereo unspecified) as the compound, how does the TGI read?
A: > 100 µM

Q: With `C=CC[n+]1c2ccccc2n2cc([N+](=O)[O-])ccc21` as the compound, how does the TGI read?
A: > 100 µM

Q: Which TGI does the source give for `CC(C)(C)OC(=O)NCC(CNC(=O)OC(C)(C)C)c1nc(C(N)=O)cs1` here?
A: > 100 µM

Q: For `CC(C)(C)[Si](C)(C)OCc1cccc(OCCOc2cccc(CO[Si](C)(C)C(C)(C)C)c2[N+](=O)[O-])c1[N+](=O)[O-]`, which TGI is on record?
A: > 100 µM
